{"source": "the supplement of paper PMC12645437", "about": "“Orthogonal IMiD-Degron Pairs Induce Selective Protein Degradation in Cells” (ACS Chemical Biology, 2025)", "note": "The list shows a part of the results.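 Further: jurkat cells carrying a lentiviral library of mutant zinc finger degrons fused to EGFP plus mCherry, mCherry+ cells FACS sorted, degron abundance counted by next-generation sequencing.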", "data": [{"target": "no compound (DMSO)", "assay": "log2 fold change of degron read counts, EGFP-low vs EGFP+ sorted cells; higher = lower degron-EGFP level without compound (poor expression or instability)", "conditions": "compound: DMSO control; 18 h", "values": [{"sequence": "FHCNQCGHGFTQKGNLLRHIKL", "log2 fold change of degron read counts": 0.317}, {"sequence": "FHCDVCGAQFTQKGNLLRHIKL", "log2 fold change of degron read counts": -1.8}, {"sequence": "FKCEICGRRFTQKGNLLRHIKL", "log2 fold change of degron read counts": -2.42}, {"sequence": "LVCEICGFFCTQKGNLLRHIKL", "log2 fold change of degron read counts": 1.25}, {"sequence": "FTCPQCGADFTQKGNLLRHIKL", "log2 fold change of degron read counts": -2.36}, {"sequence": "LMCEICGFECTQKGNLLRHIKL", "log2 fold change of degron read counts": -0.329}, {"sequence": "FHCPVCGATFTQKGNLLRHIKL", "log2 fold change of degron read counts": -0.162}, {"sequence": "FVCEVCGAQFTQKGNLLRHIKL", "log2 fold change of degron read counts": -2}, {"sequence": "FMCEICGHKFTQKGNLLRHIKL", "log2 fold change of degron read counts": -2.48}, {"sequence": "FKCPVCGAAFTQKGNLLRHIKL", "log2 fold change of degron read counts": 0.0654}, {"sequence": "FFCPICGRRFTQKGNLLRHIKL", "log2 fold change of degron read counts": -1.83}, {"sequence": "FRCEICGHAFTQKGNLLRHIKL", "log2 fold change of degron read counts": -2.11}, {"sequence": "FACDQCGAWFTQKGNLLRHIKL", "log2 fold change of degron read counts": -0.0901}, {"sequence": "FFCEICGAIFTQKGNLLRHIKL", "log2 fold change of degron read counts": 0.011}, {"sequence": "FDCDICGALFTQKGNLLRHIKL", "log2 fold change of degron read counts": 0.167}, {"sequence": "LMCNQCGFYCTQKGNLLRHIKL", "log2 fold change of degron read counts": 1.48}, {"sequence": "FECEQCGAEFTQKGNLLRHIKL", "log2 fold change of degron read counts": -3.56}, {"sequence": "FGCNQCGHYFTQKGNLLRHIKL", "log2 fold change of degron read counts": 1.96}, {"sequence": "FSCNVCGANFTQKGNLLRHIKL", "log2 fold change of degron read counts": -1.79}, {"sequence": "FECSVCGHLFTQKGNLLRHIKL", "log2 fold change of degron read counts": -1}, {"sequence": "FVCPVCGAKFTQKGNLLRHIKL", "log2 fold change of degron read counts": -0.745}, {"sequence": "FCCEQCGACFTQKGNLLRHIKL", "log2 fold change of degron read counts": -1.69}, {"sequence": "FICPVCGAWFTQKGNLLRHIKL", "log2 fold change of degron read counts": 0.926}, {"sequence": "FMCNVCGALFTQKGNLLRHIKL", "log2 fold change of degron read counts": 0.548}, {"sequence": "LACEICGFNCTQKGNLLRHIKL", "log2 fold change of degron read counts": 0.012}, {"sequence": "FVCDQCGATFTQKGNLLRHIKL", "log2 fold change of degron read counts": -2.17}, {"sequence": "FHCPQCGATFTQKGNLLRHIKL", "log2 fold change of degron read counts": -0.845}, {"sequence": "FACNVCGAIFTQKGNLLRHIKL", "log2 fold change of degron read counts": 0.199}, {"sequence": "FMCSVCGHHFTQKGNLLRHIKL", "log2 fold change of degron read counts": -0.12}, {"sequence": "FHCEICGHVFTQKGNLLRHIKL", "log2 fold change of degron read counts": -1.37}, {"sequence": "FYCDVCGAAFTQKGNLLRHIKL", "log2 fold change of degron read counts": -1.07}, {"sequence": "FSCEICGHDFTQKGNLLRHIKL", "log2 fold change of degron read counts": -1.89}, {"sequence": "FICNQCGALFTQKGNLLRHIKL", "log2 fold change of degron read counts": 0.0557}, {"sequence": "FQCSVCGHPFTQKGNLLRHIKL", "log2 fold change of degron read counts": -0.66}, {"sequence": "LCCPICGFWCTQKGNLLRHIKL", "log2 fold change of degron read counts": 1.24}, {"sequence": "FKCPVCGAKFTQKGNLLRHIKL", "log2 fold change of degron read counts": -0.903}, {"sequence": "FYCPICGRGFTQKGNLLRHIKL", "log2 fold change of degron read counts": -2.93}, {"sequence": "FRCNQCGHLFTQKGNLLRHIKL", "log2 fold change of degron read counts": -0.00836}, {"sequence": "LTCNQCGFQCTQKGNLLRHIKL", "log2 fold change of degron read counts": -0.177}, {"sequence": "FNCNICGAVFTQKGNLLRHIKL", "log2 fold change of degron read counts": 0.149}, {"sequence": "FYCPICGAFFTQKGNLLRHIKL", "log2 fold change of degron read counts": 1.15}, {"sequence": "FMCEVCGADFTQKGNLLRHIKL", "log2 fold change of degron read counts": -1.53}, {"sequence": "FICNQCGHRFTQKGNLLRHIKL", "log2 fold change of degron read counts": -0.157}, {"sequence": "FQCEICGAKFTQKGNLLRHIKL", "log2 fold change of degron read counts": -1.32}, {"sequence": "FECDQCGAWFTQKGNLLRHIKL", "log2 fold change of degron read counts": -2.16}, {"sequence": "FMCPVCGAAFTQKGNLLRHIKL", "log2 fold change of degron read counts": -0.247}, {"sequence": "FDCNICGARFTQKGNLLRHIKL", "log2 fold change of degron read counts": -0.663}, {"sequence": "FACDQCGAMFTQKGNLLRHIKL", "log2 fold change of degron read counts": -1.19}, {"sequence": "FRCDQCGAKFTQKGNLLRHIKL", "log2 fold change of degron read counts": -1.35}, {"sequence": "FSCDQCGAGFTQKGNLLRHIKL", "log2 fold change of degron read counts": -1.4}]}]}
